In PubChem BioAssay AID485313 (National Center for Advancing Translational Sciences (NCATS), 2010):
Screen size: about 320,000 compounds; about 7,600 (2.4%) were called active. This list was built around the results that the source calls inconclusive (neither active nor inactive); the mix of calls is not that of the screen. The call rests on the fitted dose curve; in most records, active means well fitted activation curve with a large enough effect; inconclusive means small, poorly fitted or top-dose-only effect; inactive means no such curve, though single readings can be large or run the other way. No potency is given beside an inconclusive call; the fits are too rough.

assay: qHTS Assay for NPC1 Promoter Activators; conditions: Huh7 NPC1 promoter luciferase reporter, 24 h; series mostly up to 9.22 µM; further: nearly all actives have a fitted effect of over 60% in size;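 on activation: reporter is driven by a mutant NPC1 promoter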
Summary of the method: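 In 1536-well qHTS, Huh7 cells harboring an NPC1 promoter–luciferase construct received compound for 24 h; activation was quantified by luminescence following luciferase reagent addition.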
Potency means the concentration at half of the fitted maximal effect; tags describe the fitted curve by direction and shape.

Row | SMILES | Potency
1 | CN(C(=O)c1ccncc1)c1nnc(-c2ccccn2)s1 | inactive
2 | Cc1csc(NC(=O)c2cnccn2)n1 | inconclusive [activator, partial curve]
3 | CC1CCN(C(=O)COC(=O)c2n[nH]c3ccccc23)CC1 | active: 3.55 µM
4 | Cc1ccc(C(=O)NC(=S)N(C)C2CCCCC2)cc1 | inconclusive [activator, partial curve]
5 | CS(=O)(=O)c1ccc2nc(NC(=O)c3cc4ccccc4o3)sc2c1 | inconclusive [activator, partial curve]
6 | O=C(Nc1ccc(-c2nc3cccnc3s2)cc1)C1CCCO1 (stereo not given) | active: 0.126 µM
7 | COc1ccc(N=C2NC(=O)S/C2=C\c2ccc(N(C)C)cc2)cc1 | inconclusive [activator, partial curve]
8 | Cc1cccc(-c2nc3cc([N+](=O)[O-])ccc3o2)c1 | active: 3.55 µM
9 | Cc1csc(NC(=O)c2nc3nccc(C)n3n2)n1 | inconclusive [activator, partial curve]
10 | Cc1ccc(/C(O)=C/C(=O)C(=O)NC23CC4CC(CC(C4)C2)C3)cc1 | inconclusive [activator, single point]
11 | CCOC(=O)c1ccc(NC(=O)C2CCCO2)cc1 (stereo not given) | inconclusive [activator, single point]
12 | O=C(Cc1nc(=O)c2ccccc2s1)Nc1ccccc1 | active: 0.708 µM
13 | COc1ccc(S(=O)(=O)N2CCC(C(=O)NC3CCCCC3)CC2)cc1OC | inactive
14 | O=C(c1cc2cc(Br)ccc2o1)N1CCN(c2ccccc2)CC1 | inactive
15 | COc1ccccc1/C=C/C=N/NC(=O)c1ccccn1 | active: 2 µM
16 | COc1cccc(/C=C2\CCC(C3CCCC3)C2=O)c1 (stereo not given) | inconclusive [activator, partial curve]
17 | O=C(N/N=C/c1cc(O)ccc1[N+](=O)[O-])c1ccc2c(c1)OCCO2 | inconclusive [activator, single point]
18 | c1ccc2c(c1)Nc1cc3ccccc3cc1S2 | active: 3.16 µM
19 | O=C(Nc1ccccc1)c1cc2ccc3ccccc3c2s1 | inconclusive [activator, single point]
20 | Cc1scc(C(=O)N/N=C/c2ccsc2)c1C | inconclusive [activator, partial curve]
21 | COc1cccc(-c2cc(C(=O)N3CCCCCC3)no2)c1 | active: 0.562 µM
22 | C=CCn1c(N)c(C(=O)Nc2ccc(C)cc2)sc1=S | inconclusive [activator, partial curve]
23 | Cc1ccc(NC(=O)c2ccc3c(c2)NC(=O)CS3)nc1 | inconclusive [activator, single point]
24 | C=CCN(C(=O)Nc1ccc(OC)cc1)c1nnc(-c2ccncc2)s1 | inactive
25 | COC(=O)c1cccc(NC(=O)c2cc3sccc3n2C)c1 | active: 1.26 µM

Row | SMILES | Potency
26 | CSc1ccc(/C=N/NC(=O)c2cccc(Cl)c2)cc1 | inconclusive [activator, single point]
27 | COc1cccc(NC(=O)c2oc3ccccc3c2NC(C)=O)c1 | inconclusive [activator, single point]
28 | COc1ccc([C@H]2CC(=O)C=C(c3cccc4c3Oc3ccccc3S4)C2)cc1 | inactive
29 | Cc1ccccc1OCCOc1cccc(/C=N/NC(=O)Cc2nnc(N)s2)c1 | active: 1.58 µM
30 | CC1(C)CC(=O)c2sc(NC(=O)c3cccs3)nc2C1 | inconclusive [activator, full curve]
31 | CCN(CC)c1ccc(C(=O)Nc2cccc(F)c2)cc1 | active: 0.794 µM
32 | CCn1c(=S)sc2c(=O)n(CC(=O)Nc3cccc(Cl)c3)c(C)nc21 | inactive
33 | O=C(Nc1cccn(Cc2c(Cl)cccc2Cl)c1=O)C1CC1 | inactive
34 | CCCC(=O)Nc1cccc(-c2nc3cc(C)c(C)cc3o2)c1 | active: 2.24 µM
35 | CSc1ccccc1-c1nnc(-c2ccc(Cl)cc2)o1 | inconclusive [activator, partial curve]
36 | N/C(=N\N=C\c1ccc(Br)o1)c1nonc1N | active: 2.51 µM
37 | CCOc1ncccc1C(=O)OCC(=O)c1ccc(C)c(C)c1 | inconclusive [activator, single point]
38 | Cc1ccc(C(=O)NC2CCCCCC2)cc1S(=O)(=O)N1CCOCC1 | inconclusive [activator, partial curve]
39 | Cc1cc(C(=O)CSc2cccc[n+]2[O-])c(C)n1-c1ccccc1 | active: 0.447 µM
40 | COc1cccc(COc2ccc3ccc(=O)oc3c2)c1 | inconclusive [activator, single point]
41 | Cn1c2ccccc2c(=O)c2cc(C#CC3=CCCCC3)ccc21 | inconclusive [activator, partial curve]
42 | O=C(NC(=S)Nc1cccc(F)c1)c1cccc([N+](=O)[O-])c1 | inconclusive [activator, single point]
43 | CCOc1cccc(C(=O)Nc2ccc(N3CCCC3)cc2)c1 | inconclusive [activator, partial curve]
44 | O=C(Nc1ccc2nc(-c3ccc(Br)o3)[nH]c2c1)c1ccco1 | inconclusive [activator, single point]
45 | COc1ccc(NC(=O)COC(=O)C2CC(=O)N(c3ccc(OC(C)C)cc3)C2)cc1 (stereo not given) | inactive
46 | COc1ccc(-c2nnc(SCC(=O)N3CCCCC3)o2)cc1 | inconclusive [activator, single point]
47 | CN(C)c1ccc(NC(=O)c2cccc(C(=O)Nc3ccc(N(C)C)cc3)n2)cc1 | active: 2.82 µM
48 | Cc1ccc2nc(-c3ccc(SCC(=O)N4CCc5ccccc54)nc3)[nH]c2c1 | active: 3.55 µM
49 | CCc1noc(C)c1C(=O)NCCc1ccccc1 | inconclusive [activator, partial curve]
50 | Fc1cnc(N2CCc3ccccc32)nc1N1CCc2ccccc21 | inconclusive [activator, single point]
